# Source: PubChem BioAssay AID686979 (National Center for Advancing Translational Sciences (NCATS), 2013)
# Where “and” joins values, the source holds several entries; their conditions need not be identical. Identical values can stand only once. Screen size: about 420,000 compounds; about 50,000 (12%) were called active. Inconclusive results, whose numbers are uncertain, are shown with a selection of clear calls. The call rests on the fitted dose curve; in most records, active means well fitted inhibition curve with a large enough effect; inconclusive means small, poorly fitted or top-dose-only effect; inactive means flat fitted curve, though single readings scatter. Potencies beside an inconclusive call are fits to weak or partial responses and may not hold up.
# Assay: qHTS for Inhibitors of human tyrosyl-DNA phosphodiesterase 1 (TDP1): qHTS in cells in presence of CPT; further: nearly all actives have a fitted effect of over 55% in size
# Details: chicken DT40 Tdp1-/-;hTDP1 cells + 20 nM CPT, ATP luminescence, 48 h; activity change, negative = growth inhibition: at 46.2 µM (top of the series)
# Procedure, shortened: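 Chicken DT40 Tdp1-/- cells stably complemented with human TDP1 were seeded at 400 cells/well in medium containing 20 nM camptothecin, exposed to pin-transferred compounds, and grown at 37 °C for at least 48 hr. Viability was read as ATP luminescence.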
# On the % scale 0 is the no-effect control and ±100 the full control effect; potency means the concentration at half of the fitted maximal effect; tags describe the fitted curve by direction and shape.
SMILES,Potency,"activity change, negative = growth inhibition"
COc1cc2c(-c3ccc(O)cc3)nc3c(c(C)nn3-c3ccccc3)c2cc1OC,active: 11.6 µM,
CCS(=O)(=O)N1Cc2ccccc2CC1C(=O)Nc1nc2ccc(C)cc2s1 (configuration not stated),"inconclusive: 20.6 µM [inhibitor, partial curve]",
CNC(=S)NNC(=O)c1sccc1OCc1ccccc1,inactive,
Cc1ccc(CNC(=O)CCCN2C(=O)c3cccnc3Oc3ccc(Cl)cc32)cc1,"inconclusive: 20.6 µM [inhibitor, single point]",
CCc1ccc(N2CN(CCc3ccccc3)CNC2=S)cc1,"inconclusive: 29.1 µM [inhibitor, single point]",
CCOc1cc(-c2noc(-c3cccnc3)n2)ccc1OC,"inconclusive: 29.1 µM [inhibitor, partial curve]",
COc1ccc2cc3c(N)c(C(=O)NCc4ccco4)sc3nc2c1,"inconclusive: 20.6 µM [inhibitor, single point]",
CS/C(=N\S(=O)(=O)c1cccs1)Nc1cccc(Cl)c1C,active: 14.6 µM,
O=C(c1ccccc1F)N1CCC2CC1c1cc(N3CCCCC3)ccc12 (configuration not stated),"inconclusive: 29.1 µM [inhibitor, single point]",
Cc1nn(CC2CC2)c(=O)n1-c1ccc(C(C)C)cc1,inactive,
COc1cc2c(cc1OC)C(COc1ccccc1OC)N(C(=O)C(C)(C)C)CC2 (configuration not stated),"inconclusive: 29.1 µM [inhibitor, single point]",
CC(C)(C)OC(=O)CC1(C#N)c2ccccc2C(Br)=CN1C(=O)c1ccccc1 (configuration not stated),"inconclusive: 29.1 µM [inhibitor, single point]",
CCOc1ccc(NC(=O)c2cc3c(s2)-c2ccccc2OC3)cc1,"inconclusive: 5.17 µM [inhibitor, single point]",
COc1ccc(SC[C@H](Cc2ccccc2)N2CC[C@@H](O)CCC2=O)cc1,"inactive and inconclusive: 23.1 µM [inhibitor, single point]",
O=C(COC(=O)C12CC3CC(CC(Br)(C3)C1)C2)Nc1cccnc1Cl,"inconclusive: 0.651 µM [inhibitor, full curve, poor fit]",
COc1cccc(C2=NOC(C(=O)Nc3cc(C)nn3-c3ccccc3)C2)c1OC (configuration not stated),"inconclusive: 18.4 µM [inhibitor, single point]",
O=C(NCc1cccnc1)/C(=C\c1ccc(-c2ccc(Cl)c(Cl)c2)o1)S(=O)(=O)c1ccccc1,active: 4.61 µM,
COc1ccc2c(CN3CCN(Cc4ccccc4)CC3)cc(=O)oc2c1,"inconclusive: 25.9 µM [inhibitor, single point]",
O=C(Nc1nnc(S(=O)(=O)N2CCCCCC2)s1)c1ccccc1Cl,"inconclusive: 29.1 µM [inhibitor, single point]",
COc1cccc(/C=C2\SC(=S)N(CCCC(=O)N3CCCCC3CCO)C2=O)c1 (configuration not stated),"inconclusive: 29.1 µM [inhibitor, single point]",
COc1cc(OC)c(NC(=O)N2CCc3c(sc4c3CCCC4)C2c2ccccc2)cc1Cl (configuration not stated),"inconclusive: 25.9 µM [inhibitor, single point]",
COc1cccc(C(=O)O/N=C(\N)c2ccccn2)c1,"inconclusive: 29.1 µM [inhibitor, single point]",
NC(=O)c1ccc(N2CCCCCC2)c([N+](=O)[O-])c1,,inconclusive: -34.8% [inhibitor]

SMILES,Potency,"activity change, negative = growth inhibition"
COc1cc(N)c(Cl)cc1C(=O)NC1CCN(Cc2ccccc2)CC1,inactive,
CC(O)(c1ccc(F)c(F)c1)c1nc(-c2cc3ccccc3o2)cs1 (configuration not stated),"inconclusive: 29.1 µM [inhibitor, single point]",
COc1ccccc1Cc1nc2ccccc2nc1SCC(=O)N1CCc2ccccc21,"inconclusive: 3.26 µM [inhibitor, partial curve]",
O=c1c(-c2cccc(F)c2)nc2cncnc2n1Cc1ccccc1,"inconclusive: 11.6 µM [inhibitor, partial curve]",
COc1ccc(-c2cc(C)no2)cc1S(=O)(=O)N1CCCN(Cc2ccc(F)cc2)C1,"inconclusive: 18.4 µM [inhibitor, single point]",
COc1ccc(Nc2nc(N3CCCC3)nc3ccccc23)c(OC)c1,"inconclusive: 29.1 µM [inhibitor, single point]",
Cc1ccc(C(=O)CNc2cccc(Cl)c2)cc1,"inconclusive: 29.1 µM [inhibitor, single point]",
Cc1ccc(-n2nc(C(=O)N3CCOCC3)cc2-c2ccc(Cl)cc2)cc1,"inconclusive: 20.6 µM [inhibitor, single point]",
O=C(c1ccc2oc(CCCc3ccccc3)nc2c1)N1CCCC1,active: 16.4 µM,
Cc1ccc(NC(=O)Nc2cccn(Cc3c(F)cccc3Cl)c2=O)cc1,"inconclusive: 29.1 µM [inhibitor, single point]",
Nc1nc2ccccc2n1CCOc1ccccc1Cl,"inconclusive: 29.1 µM [inhibitor, single point]",
O=c1[nH]c2ccc(N/C(=N/S(=O)(=O)c3ccccc3)c3ccccc3)cc2[nH]1,inactive,
Cc1cccc(-c2nc(CSCC(=O)N3CCN(c4ccccc4)CC3)c(C)o2)c1,"inconclusive: 20.6 µM [inhibitor, single point]",
CC(=O)COc1cccc2ccc(/C=C/c3ccc(Br)s3)nc12,active: 20.6 µM,
OC(c1ccc(F)cc1)c1nc(-c2csc3ccccc23)cs1 (configuration not stated),active: 18.4 µM,
c1ccc2c(c1)ncn2CCOCCOCCn1cnc2ccccc21,"inconclusive: 25.9 µM [inhibitor, single point]",
COc1ccccc1CCNC(=O)Cc1c(C)c2c(cc(C)c3c(C)c(C)oc32)oc1=O,inactive,
CCC(C)NC(=O)C1CCN(C(=O)c2ccc(-n3ccc4ccccc43)s2)CC1 (configuration not stated),"inconclusive: 29.1 µM [inhibitor, single point]",
Cc1cccc(N2CCN(C(=O)Cn3cnc4sc(C)c(S(=O)(=O)N5CCN(c6ncccn6)CC5)c4c3=O)CC2C)c1 (configuration not stated),active: 16.4 µM,
CCn1c(O)c(/C=C/C=C/C=Nc2ccccc2)sc1=S,"inconclusive: 25.9 µM [inhibitor, single point]",
S=C1SCN(Cc2ccccc2)CN1Cc1ccco1,"inconclusive: 29.1 µM [inhibitor, single point]",
Clc1ccc(N=c2ssnc2Cl)nc1,active: 3.26 µM,
Cc1nonc1OCCN1CCN(c2ccc([N+](=O)[O-])cc2)CC1,"inconclusive: 29.1 µM [inhibitor, single point]",

SMILES,Potency,"activity change, negative = growth inhibition"
COC(=O)[C@@]1(C(C)C)N=C(c2cc(OC)c(OC)c(OC)c2)[C@]2(O1)C(=O)N(C)c1ccc(Br)cc12,"inconclusive: 23.1 µM [inhibitor, single point]",
CCOC(=O)c1ccc(NC(=O)CSc2nccn2-c2ccc(OCC)cc2)cc1,"inconclusive: 29.1 µM [inhibitor, single point]",
O=C1C(=O)c2ccccc2C(O)=C1CC=C(Cl)Cl,"inconclusive: 20.6 µM [inhibitor, single point]",
O=C(CCn1nc(-c2ccccc2)ccc1=O)N1CCN(c2ccccc2)CC1,"inconclusive: 29.1 µM [inhibitor, single point]",
COc1ccc(NC(=O)C(C)n2nnc3sc(-c4ccccc4)cc3c2=O)cc1Cl (configuration not stated),active: 13 µM,
COc1ccc(CNC(=O)COC(=O)c2ccc(OCC3CCCO3)cc2)cc1 (configuration not stated),"inconclusive: 23.1 µM [inhibitor, single point]",
COc1ccc(Nc2nc(NCCN3CCOCC3)nc(Nc3ccc(OC)cc3)n2)cc1,active: 11.2 µM,
CN(C)c1ccc(/C=C/c2nc3ccccc3s2)c(Cl)c1,"inconclusive: 35.5 µM [inhibitor, single point]",
Cc1cc(SCC2=NNC(=O)C2)c(Cl)cc1Cl,inactive,
COCCN(C(=O)COC(=O)/C=C/c1ccc(SC)cc1)c1c(N)n(Cc2ccccc2)c(=O)[nH]c1=O,inactive,
N=c1n(CCN2CCCCC2)c2ccccc2n1CC(O)c1ccco1 (configuration not stated),inactive,
O=C1CCCC/C=C\C[C@H](CC(=O)N(CCO)Cc2ccccc2)C(=O)N[C@@H](c2ccccc2)CO1,"inconclusive: 29.1 µM [inhibitor, single point]",
CC(=O)Nc1ccc(S(=O)(=O)NC2(C(F)(F)F)C(=O)Nc3c2c(=O)[nH]c(=O)n3Cc2ccco2)cc1 (configuration not stated),,inconclusive: -35.5% [inhibitor]
CCCn1ccc2c(OCC(=O)Nc3ccc(NC(C)=O)cc3)cccc2c1=O,"inconclusive: 23.1 µM [inhibitor, single point]",
Cc1ccc(CNC(=O)COC(=O)c2ccccc2OCC(=O)Nc2ccc(Br)cc2)cc1,inactive,
COc1cccc(NC(=O)C(=O)NCCc2csc(-c3ccc(C(F)(F)F)cc3)n2)c1,"inconclusive: 18.4 µM [inhibitor, partial curve]",
CCOc1ccccc1CNC(=O)C1CCN(S(=O)(=O)c2c(C)noc2/C=C/c2ccc(C)cc2)CC1,"inconclusive: 13 µM [inhibitor, partial curve]",
COc1ccc(NC(=O)c2ccc3ccccc3n2)cc1S(=O)(=O)N1CCCCC1,active: 20.6 µM,
O=C(Nc1cccc(S(=O)(=O)NC2=NCCCCC2)c1)c1cc(-c2ccncc2)nc2ccccc12,"inconclusive: 29.1 µM [inhibitor, single point]",
Cc1ccc(C(=O)Nc2ccc(Nc3ccccc3)cc2)cc1Br,active: 6.51 µM,
CCOc1ccc(CCNC(=O)c2cc(=O)[nH]c3ccc(S(=O)(=O)N4CCCCC4)cc23)cc1OCC,inactive,
